Data on 28 molecules can be found in PubChem BioAssay AID1745853 (National Center for Advancing Translational Sciences (NCATS), 2022).

The list shows a part of the results. Further columns of the screen follow, without active or inactive calls.

Holding throughout (assay): Primary Screen for Target Class Profiling of Small Molecule Inhibitors of Methyltransferases
The target in experiment [1] is Glycine N-methyltransferase (Homo sapiens) (UniProt Q14749). As to conditions: purified enzyme, MTase-Glo SAH luminescence; measured here: GNMT inhibition; at 40 µM; stronger effect = lower value. In outline: (§1)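 Each enzyme was assayed with SAM and its substrate. SAH formation detected by MTase-Glo luminescence; single-point 40 uM screen[…].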
In experiment [2] the target is Guanidinoacetate N-methyltransferase (Homo sapiens) (UniProt Q14353). As to conditions: purified enzyme, MTase-Glo SAH luminescence; measured here: GAMT inhibition; at 40 µM; stronger effect = lower value. In outline: as §1
Experiment [3] deals with Histamine N-methyltransferase (Homo sapiens) (UniProt P50135). The settings on record: purified enzyme, MTase-Glo SAH luminescence; measured here: HNMT inhibition; at 40 µM; stronger effect = lower value. In outline:
as §1

For experiment [4], the target named is Nicotinamide N-methyltransferase (Homo sapiens) (UniProt P40261). As to conditions: purified enzyme, MTase-Glo SAH luminescence; measured here: NNMT inhibition; at 40 µM; stronger effect = lower value. In outline:
as §1

Experiment [5] addresses Phenylethanolamine N-methyltransferase (Homo sapiens) (UniProt P11086). The settings on record: purified enzyme, MTase-Glo SAH luminescence; measured here: PNMT inhibition; at 40 µM; stronger effect = lower value. In outline: as §1
On the % scale 0 is the no-effect control and ±100 the full control effect.

As to `CO[C@H]1C(=O)N(C2CCN(C(=O)c3ccnn3C)CC2)[C@H]1c1ccncc1`, the activity change, negative = inhibition in experiment [1] is -2.14%; in experiment [2], -3.74%; in experiment [3], -3.09%; in experiment [4] it was -4.06%; in experiment [5], 4.5%.

On to `C=Cc1ccc(Cn2nc3n(CCC(C)C)c(=O)c4ccccc4n3c2=O)cc1`, for which the activity change, negative = inhibition is -5.51% in experiment [1]; 3% in experiment [2]; 0.513% in experiment [3]; -7.8% in experiment [4]; -2.14% in experiment [5].

In the case of `CCN(CC)C(=O)C(c1ccccc1)N1CCN(c2ccc(NC(=O)c3ccccc3-c3cccnc3)cc2F)CC1` (stereo not given), the activity change, negative = inhibition was -3.89% in experiment [1]; -2.28% in experiment [2]; 5.36% in experiment [3]; -16.9% in experiment [4]; -2.89% in experiment [5].

For `O=C(C[C@@H]1CCNC[C@@H]1Cc1cc(CSc2ccccc2)on1)N1CCN(c2ccccc2)CC1`, the activity change, negative = inhibition in experiment [1] was -7.79%; in experiment [2], -10.1%; in experiment [3], -11.4%; in experiment [4], -19.4%; in experiment [5], -14.9%.

Consider `CC(=O)Nc1c2n(c3ccc(F)cc13)CC(C)(C(=O)NC1CCCCCC1)N(CC1CCCO1)C2=O` (stereo not given), for which the activity change, negative = inhibition in experiment [1] is -7.61%; in experiment [2] it was -3.52%; in experiment [3], -13.3%; in experiment [4] it was -15.5%; in experiment [5], -1.37%.

With `CCCn1c(=O)c2ccccc2n2c(SCC(=O)NCc3ccccc3Cl)nnc12`, the activity change, negative = inhibition amounted to 0.218% in experiment [1]; 0.309% in experiment [2]; 5.04% in experiment [3]; 1.7% in experiment [4]; 3.58% in experiment [5].

As for `Nc1nc2c(c(N3CC[C@@H](O)C3)n1)CCN(C(=O)[C@H]1CCCO1)CC2`, the activity change, negative = inhibition in experiment [1] was -0.814%; in experiment [2], 0.955%; in experiment [3], 0.035%; in experiment [4] it was 1.01%; in experiment [5] it was 1.97%.

As to `CC(C)(O)CCc1ccc(CN2CCN([C@H]3CCCC[C@@H]3O)CC2)cc1`, the activity change, negative = inhibition in experiment [1] is -0.224%; in experiment [2] it was 0.467%; in experiment [3], -12.2%; in experiment [4], 0.507%; in experiment [5] it was -6.15%.

As for `COc1cccc(Nc2cccc(CN3CCCC(C)(NC(C)=O)C3)c2)c1` (stereo not given), the activity change, negative = inhibition was -4.5% in experiment [1]; -7.06% in experiment [2]; -18.4% in experiment [3]; -12.5% in experiment [4]; -6.41% in experiment [5].

For `CC(C)NC(=O)CSc1nnc2n(CCc3ccccc3)c(=O)c3ccccc3n12`, the activity change, negative = inhibition in experiment [1] came to 0.393%; in experiment [2], 0.95%; in experiment [3], 5.73%; in experiment [4], 0.886%; in experiment [5], 1.89%.

With `COc1cccc(N2C(=O)c3cc(-c4cccs4)nn3CC2(C)C(=O)NC2CCCCC2)c1` (stereo not given), the activity change, negative = inhibition in experiment [1] was -5.8%; in experiment [2], 1.53%; in experiment [3], 1.03%; in experiment [4], 5.75%; in experiment [5] it was -1.58%.

For the molecule `O[C@@H]1C[C@@H](c2nc(-c3cnccn3)no2)N(Cc2cccs2)C1`, the activity change, negative = inhibition in experiment [1] is -6.06%; in experiment [2], -9.69%; in experiment [3], -6.09%; in experiment [4] it was -18.3%; in experiment [5], -10.6%.

For the molecule `Cc1ccc(S(=O)(=O)c2nnn3c2nc(N2CCC(C(N)=O)CC2)c2ccccc23)cc1C`, the activity change, negative = inhibition in experiment [1] was -15.5%; in experiment [2] it was -6.22%; in experiment [3], -2.75%; in experiment [4], -10.3%; in experiment [5], -6.33%.

Regarding `CN1C(=O)c2cc(C(=O)NCc3ccccc3Cl)nn2CC1(C)C(=O)NCc1ccc(F)cc1` (stereo not given), the activity change, negative = inhibition in experiment [1] stood at 7.86%; in experiment [2], 3.32%; in experiment [3] it was 9.25%; in experiment [4] it was 0.241%; in experiment [5], 5.72%.

On to `Cc1ccccc1CNC(=O)c1cc2cn(C(C)C)cc2s1`, for which the activity change, negative = inhibition in experiment [1] was -8.44%; in experiment [2] it was -0.007%; in experiment [3], -1.3%; in experiment [4], -4.45%; in experiment [5], -17.2%.

Consider `O=c1c2nc(NCCOc3ccccc3)ccc2ncn1Cc1ccccc1`, for which the activity change, negative = inhibition in experiment [1] is -8.61%; in experiment [2], 2.71%; in experiment [3], -4.75%; in experiment [4] it was -9.47%; in experiment [5], -4.86%.

On to `CC(C)Oc1ccc(CN2C(=O)c3cc4occc4n3CC2(C)C(=O)NC2CCCC(C)C2C)cc1` (stereo not given), for which the activity change, negative = inhibition in experiment [1] is 0.712%; in experiment [2], -7.35%; in experiment [3], 7.17%; in experiment [4], -1.75%; in experiment [5], -0.12%.

`COc1ccc(CN2C(=O)c3c(-n4cccc4)c4ccccc4n3CC2(C)C(=O)NC2CCCC2)cc1` (stereo not given): the activity change, negative = inhibition in experiment [1] is 5.01%; in experiment [2], 0.335%; in experiment [3], 0.802%; in experiment [4] it was 3.65%; in experiment [5] it was 2.9%.

As for `CCCn1c(=O)c2ccc(Cl)cc2n2c(=O)n(Cc3ccccc3Cl)nc12`, the activity change, negative = inhibition in experiment [1] came to 1.6%; in experiment [2], 2.75%; in experiment [3], 4.26%; in experiment [4], 2.06%; in experiment [5] it was 3.64%.

On to `COc1ccc2cc3n(c2c1)CC(C)(C(=O)NC1CCCCC1)N(CCC(C)C)C3=O` (stereo not given), for which the activity change, negative = inhibition in experiment [1] is -1.95%; in experiment [2], 4.97%; in experiment [3], -0.426%; in experiment [4] it was 3.19%; in experiment [5], -6.35%.

As for `CSc1cccc(N2C(=O)CSc3c(c4ccccc4n3C)C2C(=O)NCc2ccc(F)cc2)c1` (stereo not given), the activity change, negative = inhibition in experiment [1] is -0.764%; in experiment [2], 0%; in experiment [3] it was 11.8%; in experiment [4], 9.9%; in experiment [5] it was 7.16%.

As for `Cc1cc(C)nc(N2C[C@H]3OC(=O)N(CCc4cccc(Cl)c4)[C@H]3C2)n1`, the activity change, negative = inhibition in experiment [1] is -6.7%; in experiment [2] it was -5.47%; in experiment [3], -1.18%; in experiment [4], -5.37%; in experiment [5] it was -2.32%.

Turning to `CC1(C(=O)NCC2CCCO2)Cn2c(cc3ccccc32)C(=O)N1Cc1cccc(F)c1` (stereo not given), the activity change, negative = inhibition is 0.29% in experiment [1]; 4.37% in experiment [2]; 0.292% in experiment [3]; 0.396% in experiment [4]; -0.283% in experiment [5].

`CCC[C@@H]1CN(C(=O)c2ccccc2-c2ccccc2F)C[C@H]1NC(C)=O`: the activity change, negative = inhibition in experiment [1] is -1.07%; in experiment [2] it was -10.1%; in experiment [3], -1.3%; in experiment [4], -6.49%; in experiment [5] it was 0.555%.

For the molecule `COC(=O)c1cc2n(n1)CC(C)(C(=O)NC1CCC(C)CC1)N(c1ccc(OC)cc1)C2=O` (stereo not given), the activity change, negative = inhibition in experiment [1] stood at 4.06%; in experiment [2], 1.3%; in experiment [3], 7.09%; in experiment [4] it was 8.37%; in experiment [5] it was 2.42%.

For the molecule `O=C1CC(=O)Nc2cc(S(=O)(=O)Nc3cccc(Br)c3)ccc2N1`, the activity change, negative = inhibition in experiment [1] was -2.18%; in experiment [2], 2.04%; in experiment [3], 1.62%; in experiment [4], 0.57%; in experiment [5], 3.95%.

Turning to `COc1ccc(-c2cc3n(n2)CC(C)(C(=O)NCc2ccccc2OC)N(c2ccc(F)cc2)C3=O)cc1` (stereo not given), the activity change, negative = inhibition is -1.41% in experiment [1]; 3.87% in experiment [2]; -0.823% in experiment [3]; -3.03% in experiment [4]; -1.98% in experiment [5].

`COCCCNC(=O)C1(C)Cn2nc(-c3ccccc3)cc2C(=O)N1c1ccc(C(C)C)cc1` (stereo not given): the activity change, negative = inhibition was -3.05% in experiment [1]; 2.81% in experiment [2]; -3.18% in experiment [3]; -4.49% in experiment [4]; -7.44% in experiment [5].
